From PMC4336329 (PLoS ONE, 2015)
In all, about 310,000 compounds went through this assay and about 14,000 (4.5%) showed an effect of 50% or more. The effect is printed as a negative number. This is one part of the list.

Target: human ether-à-go-go-related gene (hERG) potassium channel (human, UniProt Q12809)
Test: primary screen, population patch clamp on CHO cells stably expressing hERG
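Also: peak tail current of the secondary pulse compared with the same well before compound.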

Chain of human ether-à-go-go-related gene (hERG) potassium channel (Q12809 whole entry, looked up): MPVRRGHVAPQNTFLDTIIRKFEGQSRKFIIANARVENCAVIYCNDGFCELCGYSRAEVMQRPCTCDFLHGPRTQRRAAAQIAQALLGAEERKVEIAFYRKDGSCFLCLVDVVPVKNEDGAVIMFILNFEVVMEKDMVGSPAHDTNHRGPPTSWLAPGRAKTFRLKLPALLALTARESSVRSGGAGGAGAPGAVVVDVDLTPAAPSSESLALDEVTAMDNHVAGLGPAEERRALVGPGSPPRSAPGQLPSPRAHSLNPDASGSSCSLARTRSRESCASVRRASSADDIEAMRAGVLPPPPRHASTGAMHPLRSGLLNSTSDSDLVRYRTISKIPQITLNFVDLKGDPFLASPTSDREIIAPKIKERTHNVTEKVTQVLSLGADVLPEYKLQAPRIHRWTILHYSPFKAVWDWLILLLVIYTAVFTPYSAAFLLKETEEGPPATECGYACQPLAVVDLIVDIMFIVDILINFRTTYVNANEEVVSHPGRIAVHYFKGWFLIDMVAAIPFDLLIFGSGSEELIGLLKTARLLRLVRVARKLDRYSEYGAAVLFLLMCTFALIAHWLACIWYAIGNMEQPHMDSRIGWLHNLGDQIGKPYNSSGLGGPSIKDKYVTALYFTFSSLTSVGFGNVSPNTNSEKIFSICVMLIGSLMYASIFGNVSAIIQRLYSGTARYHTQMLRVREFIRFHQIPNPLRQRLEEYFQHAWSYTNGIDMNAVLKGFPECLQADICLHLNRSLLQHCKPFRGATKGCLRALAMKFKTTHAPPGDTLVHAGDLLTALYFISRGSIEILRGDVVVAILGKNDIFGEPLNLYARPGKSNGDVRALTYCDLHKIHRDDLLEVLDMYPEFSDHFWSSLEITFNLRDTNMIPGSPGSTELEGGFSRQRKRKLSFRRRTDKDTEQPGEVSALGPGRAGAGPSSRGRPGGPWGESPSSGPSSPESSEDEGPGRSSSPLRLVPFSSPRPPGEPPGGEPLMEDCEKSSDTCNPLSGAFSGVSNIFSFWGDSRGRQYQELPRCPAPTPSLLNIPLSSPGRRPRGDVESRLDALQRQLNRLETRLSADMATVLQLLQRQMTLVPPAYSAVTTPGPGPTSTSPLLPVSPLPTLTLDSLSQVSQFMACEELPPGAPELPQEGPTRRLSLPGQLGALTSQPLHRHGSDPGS

Row | Compound | hERG current change (%, negative = inhibition) at 10uM
1 | COc1ccc(OC)c(C(C)NS(=O)(=O)c2cccs2)c1 (centres unmarked) | -7.95%
2 | COC(=O)c1c(C(=O)c2ccc(Br)cc2)n(C)c2ccccc12 | 5.52%
3 | CSc1ccc(CN(C)C(=O)COc2ccc(C(=O)c3ccccc3)cc2)cc1 | 2.28%
4 | Cn1cc(S(=O)(=O)Nc2ccc(F)c(Cl)c2)c(=O)n(C)c1=O | 9.4%
5 | CNC(=S)/N=C(\Nc1ccc(C)cc1)c1ccccc1 | 13.1%
6 | CC(=O)Nc1ccc(/C=N/NC(=O)c2cccs2)cc1 | 6.45%
7 | Cc1cccc(NC(=O)CN2CCN(CC(=O)Nc3ccc(-c4ccccc4)cc3)CC2)c1C | -17%
8 | CCOC(=O)Cc1nnc(NC(=O)CSc2ccc(Cl)cc2)s1 | 2.74%
9 | O=C(Nc1nnc(CCc2ccccc2)s1)c1ccccc1 | 12.5%
10 | CC(C)CC(=O)N/C(N)=N/c1nc2ccccc2s1 | -16%
11 | COc1ccc(NC(=O)N2CCCc3cccc(C)c32)cc1 | -8.83%
12 | CN1CC(=O)N(CC(=O)Nc2cc(Cl)cc(Cl)c2)C1=O | 4.4%
13 | CN(Cc1ccccc1)C(=O)CCC(=O)N(C)Cc1ccccc1 | 2.28%
14 | O=C1C2C3C=CC(O3)C2C(=O)N1CC(O)c1ccccc1 (centres unmarked) | 1.77%
15 | Cc1ccc(NC(=S)Nc2ccccn2)c(C)c1 | -0.823%
16 | Cc1ccc(S(=O)(=O)N2CCCCC2)cc1C(=O)OC1CCCCC1=O (centres unmarked) | -14.7%
17 | C/C(Cl)=C/CC1(CN2CCCC2=O)C(=O)NC(=O)NC1=O | 15.4%
18 | CC(C)(C)NCC(O)COCc1ccc(Cl)cc1.Cl (centres unmarked) | -24.6%
19 | CCN(Cc1ccccc1)C(=O)Cn1cc2c(n1)CCCC2 | 0.356%
20 | Cc1cccc(N/N=C(\C#N)S(=O)(=O)C(C)(C)C)c1 | 5.62%
21 | [Cl-].[NH3+]CCCn1c(C(=O)c2ccc(Cl)cc2)c2ccc(C(F)(F)F)cc2[n+]1[O-] | -79.2%
22 | CCOC(=O)C1CCN(C(c2cccnc2)c2c(NC(=O)c3ccco3)sc(C)c2C)CC1 (centres unmarked) | -19.1%

Row | Compound | hERG current change (%, negative = inhibition) at 10uM
23 | O=C(NCc1ccc2c(c1)OCO2)c1ccc(Br)o1 | 7.09%
24 | CCc1nc2scc(-c3cccs3)c2c(=O)o1 | 5.12%
25 | O=C(CSc1nccc(=O)[nH]1)Nc1ccc2c(c1)OCCO2 | 51.6%
26 | CCOc1ccccc1NC(=O)CSc1nc2cc(O)ccc2c(=O)n1-c1ccc(OC)c(OC)c1 | 9.24%
27 | CC(=O)Nc1ccc(NS(=O)(=O)c2ccc(-c3cnc(C4CC4)o3)cc2)cc1 | 3.37%
28 | CC1CC(Nc2ccccc2)c2ccccc2N1C(=O)c1ccncc1 (centres unmarked) | 5.73%
29 | CN(CC(=O)Nc1cccc(S(=O)(=O)N2CCCC2)c1)CC(=O)Nc1ccc(Cl)c(C(F)(F)F)c1 | -22.4%
30 | CCOC(=O)C1CCN(S(=O)(=O)c2ccc3c(c2)CCN3C(=O)C2CCC2)CC1 | 14.1%
31 | CCOC(=O)C1CCN(C(C(=O)Nc2ccc3c(c2)OCCO3)c2ccccc2)CC1 (centres unmarked) | -14.4%
32 | Cc1cc(N2CCCC(C(=O)Nc3cccc4ccccc34)C2)n2ncnc2n1 (centres unmarked) | -61.9%
33 | COc1ccccc1OCC(O)Cn1c(Br)nc2c1c(=O)[nH]c(=O)n2C (centres unmarked) | -9.6%
34 | NS(=O)(=O)c1ccc(NC(=O)COC(=O)C2CCCCC2)cc1 | -7.3%
35 | COc1ccc(OC)c(-n2c(SC)nnc2-c2c[nH]c3ccccc23)c1 | -2.95%
36 | O=c1cc(CSc2ccc(S(=O)(=O)N3CCCCC3)cn2)nc2sccn12 | -18.6%
37 | Cc1ccc(-c2nc3cccnc3o2)cc1NC(=O)COc1ccc(C(C)(C)C)cc1 | 7.05%
38 | COc1ccc(-n2c(O)c(C=NCCN(C)C)c(=O)[nH]c2=O)cc1 | -1.34%
39 | CCN1C(=O)C2(C(C(=O)c3ccc(C)o3)=C(O)C(=O)N2CCCN2CCOCC2)c2ccccc21 (centres unmarked) | 0.0517%
40 | O=C(COC(=O)c1c[nH]c2ccccc12)NC1CCCCC1 | -0.35%
41 | COc1cc(OC)c(C(=O)OC(C)C(=O)Nc2cccc(C(F)(F)F)c2)cc1OC (centres unmarked) | -1.96%
42 | Cc1ccc(NC(=O)Cn2c3ccc(F)cc3c3nc4n(c(=O)c32)CCS4)cc1F | 8.3%
43 | CCOC(=O)C1CCN(C(=O)c2ccccc2NS(=O)(=O)c2ccc(F)cc2)CC1 | -12.8%
44 | COc1ccc(C(=O)N/C(=C/c2cccnc2)C(=O)N2CCN(C)CC2)cc1OC | 11.4%

Row | Compound | hERG current change (%, negative = inhibition) at 10uM
45 | CN(Cc1nc2ccccc2c(=O)[nH]1)Cc1cc(=O)oc2ccc3ccccc3c12 | -10.1%
46 | Cc1ccc(-c2cn(CCN)c(-c3ccc(Cl)nc3)n2)cc1 | -21.7%
47 | O=C(COC(=O)CCC(=O)Nc1nccs1)NCc1ccco1 | 5.94%
48 | COC(=O)/C=C(\C)NC(=O)c1cccs1 | -4.27%
49 | O=C(/C=C/c1ccc(Cl)c(Cl)c1)NC1=NCCS1 | 35.8%
50 | CCOc1cc(CNC2CCCC2)cc(Cl)c1OCc1ccc(F)cc1.Cl | -17.6%
51 | Cc1ccc(CNC(=O)Cn2cnc3cc([N+](=O)[O-])ccc3c2=O)cc1 | -30.2%
52 | O=C(COc1ccc(Cl)cc1Cl)N1CCCCCC1 | -13.6%
53 | c1cc(C2OCCN2CC2COC3(CCCC3)O2)ccn1 (centres unmarked) | 18.4%
54 | CCOC(=O)[C@H](CCc1ccccc1)N[C@@H](C)C(=O)N1CCC[C@@H]1C(=O)O.O=C(O)/C=C\C(=O)O | 6.13%
55 | Cc1nn(C)c(C)c1NS(=O)(=O)c1ccccc1 | 7.92%
56 | CC1(C)Oc2ccc(NC(=O)C3COc4ccccc4O3)cc2O1 (centres unmarked) | -12.3%
57 | O=C(COC(=O)c1ccc([N+](=O)[O-])o1)Nc1cccc(S(=O)(=O)N2CCOCC2)c1 | -19.4%
58 | CCC1CCCCN1C(=O)COc1ccccc1NC(C)=O (centres unmarked) | 29.6%
59 | COc1ccc(-c2nnn(CC(=O)N(CC(=O)NC3CCCC3)c3ccccc3F)n2)cc1OC | -21.3%
60 | Fc1ccc(NC(=S)N2CCn3cccc3C2c2cccnc2)cc1 (centres unmarked) | -25.9%
61 | CC(C)N1C(=O)CCC1C(=O)NCc1ccc(F)cc1Cl (centres unmarked) | 18.3%
62 | COCCCN1C2=C(C(=O)CC(C)(C)C2)C(c2ccc(OC)c(OC)c2)C2=C1CC(C)(C)CC2=O | 11.2%
63 | CCC(C)n1c(SCC(=O)NCc2ccco2)nnc1-c1cccc(S(=O)(=O)N2CCOCC2)c1 (centres unmarked) | -27.4%
64 | CCOc1ccccc1Nc1ccc2nonc2c1[N+](=O)[O-] | 17.2%
65 | COc1ccc(-c2csc(NC(=O)CS(=O)(=O)c3ccccc3)n2)cc1 | -28.6%
66 | COC(=O)c1cc(S(=O)(=O)N2CCN(c3cccc(Cl)c3)CC2)c[nH]1 | -5%

Row | Compound | hERG current change (%, negative = inhibition) at 10uM
67 | Cc1nc2c(-c3ccc(F)cc3)c(C)[nH]n2c(=O)c1Cl | 16.8%
68 | Cc1cc(F)ccc1S(=O)(=O)N1CCCCC1CCNC(=O)C(=O)NCCN1CCOCC1 (centres unmarked) | -10.5%
69 | CCCCn1cnc2sc3c(c2c1=N)CCCC3 | -52.1%
70 | O=C(CCc1nnc2ccc(NCc3ccccc3Cl)nn12)NCC1CCN(C2CCCC2)C1 (centres unmarked) | 12.8%
71 | CCOC(=O)C1CCN(C(=O)c2cc3c(=O)n4cccc(C)c4nc3s2)CC1 | -15.5%
72 | COc1ccc(C(=O)N/N=C\c2coc3ccccc3c2=O)cc1 | 6.36%
73 | CC1(C)Cc2nc3oc4c(=O)n(CC(=O)Nc5ccc(Cl)cc5)cnc4c3cc2CO1 | 12.8%
74 | CCn1c(C)c(C(=O)Nc2ccc(OC)cc2)c2cc(OC)ccc21 | 15.4%
75 | COC(=O)C1=C(c2ccc(F)cc2OCc2ccccc2)C[C@@H]2CC[C@H]1N2C(=O)NC1Cc2ccccc2C1 | 1.92%
76 | CCCC(C(=O)NC(C)(C)CC)N(CC1CCCO1)C(=O)CNS(=O)(=O)c1ccc(F)cc1 (centres unmarked) | -19%
77 | Cc1cc(C)c2nc(N(CCCN(C)C)C(=O)c3ccc(S(=O)(=O)N4CCCCCC4)cc3)sc2c1.Cl | -20.3%
78 | CCc1c(C)[nH]c2c(C)cccc2c1=O | 7.93%
79 | CCOC(=O)CNC(=O)Cn1cnc2ccc(S(=O)(=O)N3CCC(C)CC3)cc2c1=O | -7.29%
80 | COc1ccc(C(=O)CCC(=O)Nc2ccc(N3CCN(C)CC3)cc2)cc1OC | -9.47%
81 | O=c1ccc2c(o1)/C(=C/C=C(Cl)Cl)CCC2 | 12.7%
82 | Cc1ccc(-c2csc3ncnc(OCC(=O)NC(=O)NCc4ccco4)c23)cc1 | -0.796%
83 | COc1ccccc1N(CC(=O)NCc1ccccc1C)S(=O)(=O)c1ccc(C)cc1 | -18.4%
84 | COCCSc1nnc(NC(=O)C2CC(=O)N(c3ccc(Cl)cc3)C2)s1 (centres unmarked) | -15.6%
85 | Cc1ccc(C(=O)Nc2ccc(S(=O)(=O)N3CCOCC3)cc2)cc1Br | 3.46%
86 | CCOc1ccc(NC(=O)CN(C)C(=O)Cn2c(=O)oc3ccccc32)cc1OCC | 0.927%
